Data taken from the supplement of paper PMC12297408.
Counter-ions that a name gives are not always drawn. Screen size: about 1,300 compounds; about 40 (3%) showed activity. The list shows a part of the results.

System: Plasmodium falciparum NF54/iGP1_RE9H ulg8 stage V gametocytes
Assay: gametocyte viability (luciferase signal relative to DMSO control) (% of DMSO control); higher = less gametocytocidal activity, active = 50 or less
Conditions: exposure time: 72 h
Method in brief: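 Stage V gametocytes of the NF54/iGP1_RE9Hulg8 line (day 12; ~2.5% gametocytemia, 3% hematocrit), in medium containing 0.5% Albumax II, were dispensed into 96-well plates with compounds spotted in nanolitre volumes from 10 mM DMSO stocks, for final concentrations of 10 µM or 1 µM in a single well each. After 72 h at 37 °C, 90 µl from each well was combined with 10 µl D-luciferin (30 mg/ml), and luminescence was measured on an IVIS Lumina II. Viability was expressed against the mean of the DMSO vehicle wells on the same plate.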

Row | Structure (SMILES) | gametocyte viability (concentration: 1 µM) | gametocyte viability (concentration: 10 µM)
1 | CC(C)(C(=O)O)c1ccc(C(O)CCCN2CCC(C(O)(c3ccccc3)c3ccccc3)CC2)cc1 (stereo not given) [Fexofenadine HCl] | inactive: 83.4 | inactive: 82.4
2 | NS(=O)(=O)c1cc(C(=O)O)cc(N2CCCC2)c1Oc1ccccc1 [Piretanide] | inactive: 85.9 | inactive: 86.9
3 | Cc1cc(C(C)(C)C)c(O)c(C)c1CC1=NCCN1 [Oxymetazoline hydrochloride] | inactive: 89.6 | inactive: 90.7
4 | CN(C)CCCN1c2ccccc2Sc2ccccc21 [Promazine hydrochloride] | inactive: 95.7 | inactive: 96.8
5 | CC(C(=O)O)c1ccc2c(c1)Cc1cccnc1O2 (stereo not given) [Pranoprofen] | inactive: 93.6 | inactive: 94.8
6 | CSc1ccc2c(c1)C(N1CCN(C)CC1)Cc1ccccc1S2 (stereo not given) [Methiothepin maleate] | inactive: 86.1 | inactive: 75.3
7 | Cc1c(C)c2c(c(C)c1O)CCC(C)(COc1ccc(CC3SC(=O)NC3=O)cc1)O2 (stereo not given) [Troglitazone] | inactive: 81.7 | inactive: 76.3
8 | COC(c1ccccc1)(c1ccccc1)[C@H](Oc1nc(C)cc(C)n1)C(=O)O [Ambrisentan] | inactive: 80.3 | inactive: 85.6
9 | COc1ccc2c(c1)c(CC(=O)O)c(C)n2C(=O)c1ccc(Cl)cc1 [Indomethacin] | inactive: 89 | inactive: 93.3
10 | CN1CCC(=C2c3ccccc3CCc3cccnc32)CC1 [Azatadine maleate] | inactive: 79.7 | inactive: 80.8
11 | Nc1nc2ccc(OC(F)(F)F)cc2s1 [Riluzole hydrochloride] | inactive: 88.4 | inactive: 81.5
12 | C(=C\c1ccccc1)/CN1CCN(C(c2ccccc2)c2ccccc2)CC1 [Cinnarizine] | inactive: 87 | inactive: 85.1
13 | O=C(C1CCCCC1)N1CC(=O)N2CCc3ccccc3C2C1 (stereo not given) [Praziquantel] | inactive: 92.8 | inactive: 76.4
14 | CC(=O)NCCCS(=O)(=O)O [Acamprosate calcium] | inactive: 80.4 | inactive: 79.8
15 | CCOC(=O)O[C@]1(C(=O)COC(=O)CC)CC[C@H]2[C@@H]3CCC4=CC(=O)C=C[C@]4(C)[C@H]3[C@@H](O)C[C@@]21C [Prednicarbate] | inactive: 91.7 | inactive: 90.6
16 | CC(C)(C)NCC(O)COc1cccc2c1CCC(=O)N2 (stereo not given) [Carteolol hydrochloride] | inactive: 87.2 | inactive: 84
17 | CN(C)CCN1C(=O)c2ccccc2N(C)c2ccccc21 [Dibenzepine hydrochloride] | inactive: 84.8 | inactive: 91.3
18 | COc1ccc(OC)c(C(O)CNC(=O)CN)c1 (stereo not given) [Midodrine hydrochloride] | inactive: 82.8 | inactive: 88.6
19 | CN1CCN(CCCN2c3ccccc3Sc3ccc(C(F)(F)F)cc32)CC1 [Trifluoperazine dihydrochloride] | inactive: 82.8 | active: 46.8
20 | CC[C@H](C)[C@H](N)C1=N[C@H](C(=O)N[C@@H](CC(C)C)C(=O)N[C@H](CCC(=O)O)C(=O)N[C@H](C(=O)N[C@H]2CCCCNC(=O)[C@H](CC(N)=O)NC(=O)[C@@H](CC(=O)O)NC(=O)[C@H](Cc3cnc[nH]3)NC(=O)[C@@H](Cc3ccccc3)NC(=O)[C@H]([C@@H](C)CC)NC(=O)[C@@H](CCCN)NC2=O)[C@@H](C)CC)CS1 [Bacitracin] | inactive: 90.8 | inactive: 84.3
21 | CN(C)CCOC(C)(c1ccccc1)c1ccccn1 (stereo not given) [Doxylamine succinate] | inactive: 87.8 | inactive: 87.7
22 | CC(=O)c1ccc2c(c1)N(CCCN(C)C)c1ccccc1S2 [Acetopromazine maleate salt] | inactive: 94.6 | inactive: 92.5
23 | CC(C)(C#N)c1cc(Cn2cncn2)cc(C(C)(C)C#N)c1 [Anastrozole] | inactive: 77.6 | active: 45.8
24 | Oc1c(I)cc(Cl)c2cccnc12 [Clioquinol] | inactive: 85.9 | inactive: 84.4
25 | Nc1ccn([C@H]2CC[C@@H](CO)O2)c(=O)n1 [Zalcitabine] | inactive: 86.3 | inactive: 85.7
26 | CN(C(=O)C(Cl)Cl)c1ccc(OC(=O)c2ccco2)cc1 [Diloxanide furoate] | inactive: 82 | inactive: 86
27 | CN1[C@@H]2CC[C@H]1C[C@@H](OC(=O)c1c[nH]c3ccccc13)C2 [Tropisetron HCl] | inactive: 81.3 | inactive: 79.4
28 | Cc1cccc(C)c1OCC(C)N (stereo not given) [Mexiletine hydrochloride] | inactive: 86.6 | inactive: 88.4

Row | Structure (SMILES) | gametocyte viability (concentration: 1 µM) | gametocyte viability (concentration: 10 µM)
29 | Nc1c2c(nc3ccccc13)CCCC2O (racemic) [Hydroxytacrine maleate (R,S)] | inactive: 101 | inactive: 93.6
30 | N#Cc1cc(NC(=O)C(=O)O)c(Cl)c(NC(=O)C(=O)O)c1 [Lodoxamide] | inactive: 91.8 | inactive: 102
31 | COc1ccccc1OCC(O)CO (stereo not given) [Guaifenesin] | inactive: 81.8 | inactive: 83.6
32 | NC[C@@H]1O[C@H](O[C@H]2[C@@H](O)[C@H](O[C@@H]3[C@@H](O)[C@H](N)C[C@H](N)[C@H]3O[C@H]3O[C@H](CO)[C@@H](O)[C@H](O)[C@H]3N)O[C@@H]2CO)[C@H](N)[C@@H](O)[C@@H]1O [Paromomycin sulfate] | inactive: 81.2 | inactive: 86.6
33 | Nc1nc(CC(=O)Nc2ccc(CCNC[C@H](O)c3ccccc3)cc2)cs1 [Mirabegron] | inactive: 91.9 | inactive: 90.8
34 | CC(=O)[C@H]1CC[C@H]2[C@@H]3C=CC4=CC(=O)CC[C@@]4(C)[C@@H]3CC[C@]12C [Dydrogesterone] | inactive: 84.5 | inactive: 91.7
35 | Oc1c(Cl)cc(Cl)c(Cl)c1Cc1c(O)c(Cl)cc(Cl)c1Cl [Hexachlorophene] | inactive: 75.9 | inactive: 75.7
36 | Cc1c(N(C)C)c(=O)n(-c2ccccc2)n1C [Amidopyrine] | inactive: 99 | inactive: 95.3
37 | COc1ccc(/C=C/C(=O)Nc2ccccc2C(=O)O)cc1OC [Tranilast] | inactive: 68.5 | active: 40.9
38 | CCOC(=O)C1=C(COCCN)NC(C)=C(C(=O)OC)C1c1ccccc1Cl (stereo not given) [Amlodipine] | inactive: 82.2 | inactive: 63.1
39 | CN(C)C(=O)C(CCN1CCC(O)(c2ccc(Cl)cc2)CC1)(c1ccccc1)c1ccccc1 [Loperamide hydrochloride] | inactive: 84 | inactive: 79
40 | Cc1cccc(C)c1NC(=O)C(C)N (stereo not given) [Tocainide hydrochloride] | inactive: 91.8 | inactive: 90.2
41 | CCCCc1cc2ccccc2c(OCCN(C)C)n1 [Dimethisoquin hydrochloride] | inactive: 86.5 | inactive: 91.9
42 | CC(C(=O)O)c1ccc2c(c1)[nH]c1ccc(Cl)cc12 (stereo not given) [Carprofen] | inactive: 78.8 | inactive: 81.6
43 | C[C@H]1O[C@@H](O[C@H]2[C@@H](O)C[C@H](O[C@H]3[C@@H](O)C[C@H](O[C@H]4CC[C@@]5(C)[C@H](CC[C@@H]6[C@@H]5C[C@@H](O)[C@]5(C)[C@@H](C7=CC(=O)OC7)CC[C@]65O)C4)O[C@@H]3C)O[C@@H]2C)C[C@H](O)[C@@H]1O [Digoxin] | inactive: 71.3 | inactive: 90.4
44 | COc1cc([S+](C)[O-])ccc1-c1nc2cccnc2[nH]1 (stereo not given) [Sulmazole] | inactive: 88.9 | inactive: 88
45 | CC(C(=O)O)c1ccc(-c2ccccc2)c(F)c1 (stereo not given) [Flurbiprofen] | inactive: 92.9 | inactive: 84.3
46 | O=C(OCC(O)CO)c1ccccc1Nc1ccnc2cc(Cl)ccc12 (stereo not given) [Glafenine hydrochloride] | inactive: 81 | inactive: 87.6
47 | C#Cc1cccc(Nc2ncnc3cc(OCCOC)c(OCCOC)cc23)c1 [Erlotinib] | inactive: 70.7 | active: 37.2
48 | Cc1onc(-c2ccccc2Cl)c1C(=O)N[C@@H]1C(=O)N2[C@@H]1SC(C)(C)[C@@H]2C(=O)O [Cloxacillin sodium salt] | inactive: 97.9 | inactive: 93.9
49 | N[C@@H](C(=O)N[C@@H]1C(=O)N2C(C(=O)O)=C(Cl)CC[C@H]12)c1ccccc1 [Loracarbef] | inactive: 96.3 | inactive: 91.2
50 | CC(C)Nc1cccnc1N1CCN(C(=O)c2cc3cc(NS(C)(=O)=O)ccc3[nH]2)CC1 [Delavirdine] | inactive: 92.5 | inactive: 95.8
51 | CN[C@@H]1[C@H](O)[C@H](NC)[C@H]2O[C@@]3(O)C(=O)C[C@@H](C)O[C@H]3O[C@@H]2[C@H]1O [Spectinomycin dihydrochloride] | inactive: 82.6 | inactive: 84.7
52 | NS(=O)(=O)c1cc2c(cc1Cl)NC(C(Cl)Cl)NS2(=O)=O (stereo not given) [Trichlormethiazide] | inactive: 88.5 | inactive: 94.3
53 | Cc1c(-c2ccccc2)oc2c(C(=O)OCCN3CCCCC3)cccc2c1=O [Flavoxate hydrochloride] | inactive: 92 | inactive: 87
54 | CN[C@@H]1[C@@H](O[C@H]2O[C@H](CO)[C@@H](N)[C@H](O)[C@H]2O)OC2C[C@@H](N)[C@@H](O[C@H]3[C@H](O)[C@@H](O)[C@H](N)C[C@@H]3N)OC2[C@@H]1O (stereo not given in full) [Apramycin] | inactive: 87.9 | inactive: 88.3
55 | CCC[C@@H]1C[C@@H](C(=O)N[C@@H]([C@H]2O[C@H](SC)[C@H](O)[C@@H](O)[C@H]2O)[C@H](C)Cl)N(C)C1 [Clindamycin hydrochloride] | inactive: 90.4 | inactive: 89.3
